Experimental data reported in PubChem BioAssay AID220 (DTP/NCI, 2004).
Records with an inconclusive call do not appear. Some entries of the source have several records that differ or are many. This list holds those alone. There may be further records. The records of an entry differ for a reason that is not stated; dose, time, organism, isomer or construct need not be as stated for each record. Starred links: 1 amine or outer side, 2 acyl side, 3 side chain; linkers in the order of their positions; H or OH if unused. Positions of bridges follow the written chain, without caps; N, C: chain ends. Non-standard residues stand in square brackets, D forms with d. Residues, ends and D or L forms follow the SMILES beside them. Chains are numbered I, II in the order given. Actinocin(1to9) = Cc1c2oc3c(C)ccc(C(=O)[*:2])c3nc-2c(C(=O)[*:1])c(N)c1=O; NMeV = CN[CH](C(=O)O)C(C)C; Aze = O=C(O)[CH]1CCN1; Sar = CNCC(=O)O

System: CD8F1 mice, subcutaneous mammary adenocarcinoma, T/C%
Assay: NCI In Vivo Anticancer Drug Screen. Data for tumor model Mammary Adenocarcinoma CD8F1 (subcutaneous) in CD8F1
Conditions: higher = larger tumour
Outline: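 Compound-treated versus vehicle-treated mice with transplantable tumors; survival or tumor size compared as T/C.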

[1] = endpoint: median tumor weight change, dose: 250.0 mg/kg/injection, schedule: Q01DX001 (ip), vehicle: saline with Tween-80
[2] = endpoint: median tumor weight change, dose: 500.0 mg/kg/injection, schedule: Q01DX001 (ip), vehicle: saline with Tween-80
[3] = endpoint: median tumor weight change, dose: 1000.0 mg/kg/injection, schedule: Q01DX001 (ip), vehicle: saline with Tween-80

With CCN(CC)CC[n+]1ccc2c(C)c3[nH]c4ccc(O)cc4c3c(C)c2c1 the T/C (endpoint: median tumor weight change, dose: 15.62 mg/kg/injection, schedule: Q01DX001 (ip), vehicle: suspension in saline) was 28 % of control and 73 % of control, the T/C (endpoint: median tumor weight change, dose: 30.0 mg/kg/injection, schedule: Q01DX001 (ip), vehicle: suspension in saline) was 7 % of control and 71 % of control and the T/C (endpoint: median tumor weight change, dose: 31.25 mg/kg/injection, schedule: Q01DX001 (ip), vehicle: suspension in saline) was 22 % of control, 41 % of control, 63 % of control. For the same compound, the T/C (endpoint: median tumor weight change, dose: 62.5 mg/kg/injection, schedule: Q01DX001 (ip), vehicle: suspension in saline) was -11 % of control, 13 % of control, 31 % of control.

O=P1(NCCCl)OCCCN1CCCl (stereo not given) was tested, and the T/C (endpoint: median tumor weight change, dose: 25.0 mg/kg/injection, schedule: Q01DX001 (ip), vehicle: saline) was 58 % of control, 86 % of control, 97 % of control.

With COc1ccc(Cl)[n+]([O-])n1 the T/C (endpoint: median tumor weight change, dose: 31.25 mg/kg/injection, schedule: Q01DX001 (ip), vehicle: Klucel (hydroxypropylcellulose) (HPC)) was 59 % of control and 85 % of control and the T/C (endpoint: median tumor weight change, dose: 62.5 mg/kg/injection, schedule: Q01DX001 (ip), vehicle: Klucel (hydroxypropylcellulose) (HPC)) was 54 % of control and 89 % of control.

In the case of NC(CCl)=NCC12CC3CC(CC(C3)C1)C2, the T/C (endpoint: median tumor weight (est.), dose: 6.25 mg/kg/injection, schedule: Q07DX005 (ip), vehicle: Klucel (hydroxypropylcellulose) (HPC)) is reported as 65 % of control and 162 % of control.

For N=C(N)SCc1c2ccccc2c(CSC(=N)N)c2ccccc12, the T/C (endpoint: median tumor weight change, dose: 400.0 mg/kg/injection, schedule: Q01DX001 (ip), vehicle: suspension in saline) was -7 % of control and 75 % of control.

For CCc1nc(N)nc(N)c1-c1ccc(Cl)c(N=[N+]=[N-])c1, the T/C [1] was 35 % of control and 78 % of control, the T/C [2] was 54 % of control and 88 % of control and the T/C [3] was 9 % of control and 58 % of control.

For Cc1ccc2c(c1)N=C(Nc1ccccc1)N=S2(C)=O (stereo not given), the T/C (endpoint: median tumor weight change, dose: 62.5 mg/kg/injection, schedule: Q01DX001 (ip), vehicle: saline with Tween-80) was 40 % of control and 93 % of control and the T/C [1] was 58 % of control, 69 % of control, 115 % of control.

For CCCCCC1c2cc(O)ccc2OC1N1CCOCC1 (stereo not given), the T/C (endpoint: median tumor weight change, dose: 125.0 mg/kg/injection, schedule: Q01DX001 (ip), vehicle: saline with Tween-80) was 59 % of control and 90 % of control, the T/C [2] was 65 % of control and 119 % of control and the T/C [3] was 39 % of control and 82 % of control.

In the case of Cc1c2oc3c(C)ccc(C(=O)NC4C(=O)NC(C(C)C)C(=O)N5CCCC5C(=O)N(C)CC(=O)N(C)C(C(C)C)C(=O)OC4C)c3nc-2c(C(=O)NC2C(=O)NC(C(C)C)C(=O)N3CCC3C(=O)N(C)CC(=O)N(C)C(C(C)C)C(=O)OC2C)c(N)c1=O (stereo not given) (I: TV[Aze][Sar][NMeV] / II: TVP[Sar][NMeV]; ester I:1-I:C, II:1-II:C; linker I:N-II:N via Actinocin(1to9); configuration not given here), the T/C (endpoint: median tumor weight (est.), dose: 75.0 micrograms/kg/injection, schedule: Q07DX005 (ip), vehicle: saline + alcohol) is reported as 12 % of control and 64 % of control and the T/C (endpoint: median tumor weight (est.), dose: 150.0 micrograms/kg/injection, schedule: Q07DX005 (ip), vehicle: saline + alcohol) is reported as 35 % of control and 108 % of control.

With COc1cc2cc(c1Cl)N(C)C(=O)C[C@H](OC(=O)[C@H](C)N(C)C(C)=O)[C@]1(C)O[C@H]1[C@H](C)[C@@H]1C[C@@](O)(NC(=O)O1)[C@H](OC)C=C/C=C(\C)C2 the T/C (endpoint: median tumor weight change, dose: 250.0 micrograms/kg/injection, schedule: Q01DX001 (ip), vehicle: Klucel (hydroxypropylcellulose) (HPC)) was 49 % of control and 82 % of control.
